We go through 2 molecules from patent publication US20140335107A1 (published 2014).

Numbering of substitutions follows the chain as printed. Names and notes keep the numbering of the source.

This assay addresses T1, human CD79b (human, UniProt P40259 29-229).
T1 construct: endogenous CD79b on B-cell lines (BJAB, BJAB-luciferase, DoHH-2); also called PRO36249; CD79b expressed on the surface of BJAB-luciferase cells
T1 sequence: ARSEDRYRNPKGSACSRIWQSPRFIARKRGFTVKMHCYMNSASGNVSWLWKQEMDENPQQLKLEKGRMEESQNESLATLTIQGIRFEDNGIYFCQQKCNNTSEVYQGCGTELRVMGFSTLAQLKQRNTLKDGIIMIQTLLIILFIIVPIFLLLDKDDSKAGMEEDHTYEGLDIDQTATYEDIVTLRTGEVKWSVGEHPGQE
The assay is described as follows: FACS on BJAB-luciferase cells. As to the method:
The binding affinity of thio huMA79b.v18, thio huMA79b.v28 drug conjugates and thio MA79b drug conjugates to CD79b expressed on BJAB-luciferase cells was determined by FACS analysis. Further, the binding affinity of thio anti-cynoCD79b(ch10D10) drug conjugates to CD79b expressed on BJAB cells expressing cynoCD79b was determined by FACS analysis.
Briefly, approximately 1×10⁶ cells in 100 μl were contacted with varying amounts (1.0 μg, 01. μg or 0.01 μg of Ab per million cells of BJAB-luciferase cells or BJAB cells expressing cynoCD79b (for anti-cynoCD79b thioMAbs)) of one of the following anti-CD79b thioMAb drug conjugates or naked (unconjugated Ab as a control): (1) thio MA79b-LC(V205C)-MC-MMAF or (2) thio MA79b-HC(A118C)-MC-MMAF (FIGS. 29A-B, respectively); (3) thio huMA79b.v18-HC(A118C)-MC-MMAF, (4) thio huMA79b.v18-HC(A118C)-MC-vcPAB-MMAE or (5) thio huMA79b.v18-HC(A118C)-BMPEO-DM1 (FIGS. 30B-D, respectively); (6) thio huMA79b.v28-HC(A118C)-MCvcPAB-MMAE, (7) thio huMA79b.v28-HC(A118C)-BMPEO-DM1, or (8) thio huMA79b.v28-HC(A118C)-MC-MMAF (see FIGS. 31B-31D, respectively); or (9) thio anti-cynoCDb79(ch10D10)-HC(A118C)-MCvcPAB-MMAE, (10) thio anti-cynoCD79b(ch10D10)-HC(A118C)-BMPEO-DM1 or (11) thio anti-cynoCD79b(ch10D10)-HC(A118C)-MC-MMAF (see FIGS. 32B-32D, respectively). PE conjugated mouse anti-human Ig was used as the secondary detecting antibody (BD Cat#555787).

B1: thio MA79b-LC(V205C)-MC-MMAF (antibody, human IgG1, kappa)
light: DIVLTQSPASLAVSLGQRATISCKASQSVDYDGDSFLNWYQQKPGQPPKLFIYAASNLESGIPARFSGSGSGTDFTLNIHPVEEEDAATYYCQQSNEDPLTFGAGTELELKRTVAAPSVFIFPPSDEQLKSGTASVVCLLNNFYPREAKVQWKVDNALQSGNSQESVTEQDSKDSTYSLSSTLTLSKADYEKHKVYACEVTHQGLSSPCTKSFNRGEC
heavy: EVQLQQSGAELMKPGASVKISCKATGYTFSSYWIEWVKQRPGHGLEWIGEILPGGGDTNYNEIFKGKATFTADTSSNTAYMQLSSLTSEDSAVYYCTRRVPVYFDYWGQGTSVTVSS[no letters for human IgG1 constant region]
modifications: MC-MMAF on the engineered Cys at Kabat position 205 (sequential position 209)
notes: cysteine engineered antibody drug conjugate (TDC); also called thio chMA79b-LC(V205C)-MC-MMAF; LC (V205C) thioMAb variant of chMA79b with MMAF
Take B1: the binding result is listed as “binds”.

B2: thio MA79b-HC(A118C)-MC-MMAF (antibody, human IgG1, kappa)
light: B1 light with C209V
heavy: EVQLQQSGAELMKPGASVKISCKATGYTFSSYWIEWVKQRPGHGLEWIGEILPGGGDTNYNEIFKGKATFTADTSSNTAYMQLSSLTSEDSAVYYCTRRVPVYFDYWGQGTSVTVSSCSTKGPSVFPLAPSSKSTSGGTAALGCLVKDYFPEPVTVSWNSGALTSGVHTFPAVLQSSGLYSLSSVVTVPSSSLGTQTYICNVNHKPSNTKVDKKV[no letters for human IgG1 Fc]
modifications: MC-MMAF on the engineered Cys at EU position 118 (sequential position 118; Kabat position 114)
notes: cysteine engineered antibody drug conjugate (TDC); also called thio chMA79b-HC(A118C)-MC-MMAF; HC (A118C) thioMAb variant of chMA79b with MMAF
Consider B2, for which the binding result is “binds”.
